Laboratory results: PubChem BioAssay AID540317 (National Center for Advancing Translational Sciences (NCATS), 2011)
Values joined by “and” are separate entries in the source; they are usually repeats but may differ in a detail not shown here. Equal values may be shown once. The whole screen tested about 390,000 compounds, of which about 2,200 (0.56%) were called active. The inconclusive results got no clear call from the source; some entries with a clear call stand among them for comparison. Calls follow the shape of the dose curve; as a rule, active = well fitted inhibition curve with a large enough effect; inconclusive = small, poorly fitted or top-dose-only effect; inactive = no such curve, though single readings can be large or run the other way. Where the call is inconclusive, the potency comes from a doubtful curve fit.

The compounds below were run against Chromobox protein homolog 1 (Homo sapiens) (UniProt P83916) (assay: HTS for Inhibitors of HP1-beta Chromodomain Interactions with Methylated Histone Tails). Details: AlphaScreen HP1-beta / biotin-H3K9me3 peptide binding; series mostly up to 114 µM; activity change, negative = inhibition: at the top concentration.
Chain of UniProt P83916 (P83916 whole entry, looked up): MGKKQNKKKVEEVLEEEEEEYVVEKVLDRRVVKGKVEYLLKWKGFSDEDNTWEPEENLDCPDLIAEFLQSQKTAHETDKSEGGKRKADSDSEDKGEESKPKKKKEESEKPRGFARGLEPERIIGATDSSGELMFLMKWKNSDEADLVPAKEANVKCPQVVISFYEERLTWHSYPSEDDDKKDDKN
How it was run: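 HP1-beta protein (50 nM final) preincubated 30 min at room temperature with biotinylated H3(1-18)K9me3 peptide (50 nM) in PBS pH 7.4, 0.01% Tween-20, then compound added for 30 min. AlphaScreen streptavidin donor/nickel chelate acceptor beads (10 ug/mL final), 30 min dark, luminescence read.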
Also: nearly all actives have a fitted effect of over 70% in size.
Potency is read from the fitted curve at half-maximal effect; tags tell the direction and shape of the fitted curve.

`Cc1cccc(-n2nc([N+](=O)[O-])c(=NCc3cccnc3)n2O)c1` was tested. Which “activity change, negative = inhibition” value did it give?
Its value is inactive: 11.4%.

How did the “activity change, negative = inhibition” value turn out when `Cc1cccc(N(Cc2ccccc2)C(=O)c2cccc(S(=O)(=O)N3CC(C)OC(C)C3)c2)c1` (configuration not stated) was run?
Its value is inactive: 30.9%.

Which Potency does the source give for `COc1cc(/C=N/n2c(C3CCCCC3)n[nH]c2=S)cc(OC)c1O` here?
Its Potency is inconclusive: 50.1 µM [inhibitor, partial curve, poor fit].

Which Potency does the source give for `Cc1ccc(NNC(=O)c2cc(C(C)(C)C)nn2Cc2ccccc2)cc1` here?
The Potency was inconclusive: 89.1 µM [inhibitor, single point].

`CC(C)c1ccc(C2c3c(-c4ccccc4O)n[nH]c3C(=O)N2CCc2ccccc2)cc1` (configuration not stated) was tested. Which “activity change, negative = inhibition” value did it give?
The value was inactive: 31.1%.

For `CC1=C(C(=O)Nc2ccccc2)C(c2ccc(C(=O)O)cc2)n2nc(SCC(=O)c3ccc(C)cc3)nc2N1` (configuration not stated), which Potency is on record?
The Potency was inconclusive: 70.8 µM [inhibitor, partial curve].

`Cc1n[nH]c(C)c1CCC(=O)N/N=C/C=C/c1ccccc1` was tested. Which “activity change, negative = inhibition” value did it give?
Its value is inactive: 16.6%.

`NC1=NC(=O)/C(=C/c2ccccc2OS(=O)(=O)c2ccc3ccccc3c2)S1` was tested. Which “activity change, negative = inhibition” value did it give?
Its value is inactive: 10.9%.

Which Potency does the source give for `Cc1ccc(C(C)C)c(OCCCN(C)Cc2ccccc2)c1` here?
Its Potency is inconclusive: 28.2 µM [inhibitor, single point].

Which Potency does the source give for `CCOC(=O)N1CCc2c(sc(NCc3ccc(OC)c(Br)c3)c2C(=O)Nc2cc(OC)ccc2OC)C1` here?
Its Potency is inconclusive: 14.1 µM [inhibitor, full curve].

`Cc1ccc(S(=O)(=O)NCCC(=O)NC2CC2)cc1` was tested. Which Potency did it give?
The Potency was inconclusive: 31.6 µM [inhibitor, partial curve, poor fit].

`CCC1=NN2C(=N)/C(=C\c3cccn3-c3ccc(C)c(C)c3)C(=O)N=C2S1` was tested. Which “activity change, negative = inhibition” value did it give?
Its value is inactive: 14.3%.

For `CC(CN1CCN(C)CC1)OC(=O)c1ccccc1Cl` (configuration not stated), which “activity change, negative = inhibition” value is on record?
The value was inactive: 25.6%.

`CCNC(=S)N1CCN(CC)CC1` was tested. Which Potency did it give?
The Potency was inconclusive: 17.8 µM [inhibitor, full curve].

`CC(=O)c1ccc(N2CCN(C(=O)CS(=O)(=O)c3cccc4nsnc34)CC2)cc1` was tested. Which “activity change, negative = inhibition” value did it give?
Its value is inactive: 14.3% [at 57 µM].

How did the Potency turn out when `COc1ccc(OC)c(C2C=C(C34CC5CC(CC(C5)C3)C4)NC(=S)N2)c1` (configuration not stated) was run?
Its Potency is inconclusive: 15.8 µM [inhibitor, full curve].

How did the Potency turn out when `CSCCC(NC(=O)c1ccccc1)C(=O)OCC(=O)Nc1ccc(C)c(Cl)c1` (configuration not stated) was run?
Its Potency is inconclusive: 12.6 µM [inhibitor, full curve].

With `COC(=O)CN1C(=O)S/C(=C/c2ccc(N3CCCCC3)o2)C1=O` as the compound, how does the Potency read?
Its Potency is inconclusive: 17.8 µM [inhibitor, partial curve, poor fit].

With `Cc1ccc(-c2nnc(Nc3ccc(Cl)cc3)c3ccccc23)cc1S(=O)(=O)NCC1CCCO1` (configuration not stated) as the compound, how does the “activity change, negative = inhibition” value read?
Its value is inactive: 45.6%.

How did the Potency turn out when `Cc1cccc(N2CCN(C(=S)c3ccc([N+](=O)[O-])cc3)CC2)c1` was run?
The Potency was active: 31.6 µM.

With `COc1cc(C(=S)N2CCOCC2)cc(OC)c1OC(=O)Cc1ccc(F)cc1` as the compound, how does the Potency read?
Its Potency is inconclusive: 44.7 µM [inhibitor, partial curve].

How did the Potency turn out when `Cc1ccc(Nc2c(-c3ccc(N(C)C)cc3)nc3ccccn23)cc1` was run?
The Potency was inconclusive: 14.1 µM [inhibitor, full curve].

With `CCOC(=O)c1ccc2c(c1)n(CC)c(/C=C/N(C)c1ccccc1)[n+]2CC` as the compound, how does the Potency read?
Its Potency is inconclusive: 79.4 µM [inhibitor, single point].

Which Potency does the source give for `CCOc1ccccc1C(=O)N(Cc1ccc(N(C)C)cc1)Cc1ccco1` here?
The Potency was inconclusive: 28.2 µM [inhibitor, full curve].

For `Cc1ccc(C(=O)O)cc1-c1ccc(/C=C2\SC(=O)N(CC(=O)Nc3ccccc3)C2=O)o1`, which Potency is on record?
The Potency was inconclusive: 89.1 µM [inhibitor, single point].

For `CCN(CC)CCOC(=O)c1ccc(NC(=O)c2nn(-c3ccc(C)cc3)c(=O)c3c2c2ccccc2n3C)cc1`, which Potency is on record?
The Potency was inconclusive: 89.1 µM [inhibitor, single point].

For `CCN1C(=O)/C(=C\c2cccs2)C(C(=O)OC)=C1C`, which Potency is on record?
The Potency was inconclusive: 39.8 µM [inhibitor, partial curve, poor fit].

Which Potency does the source give for `Cc1cc2ccccn2c1C(=O)c1ccc(Cl)c([N+](=O)[O-])c1` here?
Its Potency is inconclusive: 22.4 µM [inhibitor, partial curve].

With `CC/C(=C\C(=O)c1cccnc1)Nc1ccc(C)c(C)c1` as the compound, how does the Potency read?
Its Potency is inconclusive: 44.7 µM [inhibitor, partial curve, poor fit].

`CCOc1ccc(Nc2nc(N)c([N+](=O)[O-])c(N3CCOCC3)n2)cc1` was tested. Which “activity change, negative = inhibition” value did it give?
Its value is inactive: -7.09%.

`CCOc1ccccc1NC(=O)C1CCN(S(=O)(=O)c2ccc(Br)cc2)CC1` was tested. Which “activity change, negative = inhibition” value did it give?
The value was inactive: 46.3%.

With `O=C1NN(c2ccc(Cl)c(Cl)c2)C(=O)/C1=C/c1ccc(-c2ccccc2C(=O)O)o1` as the compound, how does the Potency read?
The Potency was inconclusive: 44.7 µM [inhibitor, partial curve].

`Cc1cccc(-n2c(-c3csc(C)c3)n[nH]c2=S)c1` was tested. Which Potency did it give?
The Potency was inconclusive: 20 µM [inhibitor, single point].

How did the Potency turn out when `CCCCNC(=O)c1sc(=S)n(-c2ccccc2OC)c1N` was run?
The Potency was inconclusive: 17.8 µM [inhibitor, partial curve, poor fit].

`CCOc1ccc(NC2=C(Cl)C(=O)N(Cc3ccccc3)C2=O)cc1` was tested. Which Potency did it give?
Its Potency is inconclusive: 39.8 µM [inhibitor, single point].

`Cc1ccc2c(c1)c1c(n2CC(O)CNC2CCCCC2)CCCC1` (configuration not stated) was tested. Which Potency did it give?
Its Potency is inconclusive: 50.1 µM [inhibitor, partial curve].

Which “activity change, negative = inhibition” value does the source give for `O=C(C(Cc1ccccc1)NS(=O)(=O)c1cccc2cccnc12)N1CCc2ccccc21` (configuration not stated) here?
The value was inactive: 32.1%.

For `COc1cc(NC(=O)c2noc3c2CCC3)c(OC)cc1Cl`, which Potency is on record?
Its Potency is inconclusive: 44.7 µM [inhibitor, single point].

For `O=C(NC(c1ccccc1)c1ccccc1)c1ccc(S(=O)(=O)C(F)F)cc1`, which “activity change, negative = inhibition” value is on record?
Its value is inactive: 26.8%.

With `COCCn1c(=O)[nH]c(=O)c2c1nc(-c1ccc(-c3ccc(Cl)cc3[N+](=O)[O-])o1)n2Cc1ccccc1` as the compound, how does the Potency read?
Its Potency is inconclusive: 14.1 µM [inhibitor, partial curve, poor fit].

Which “activity change, negative = inhibition” value does the source give for `COc1ccc(Nc2nc3c(S(=O)(=O)c4ccccc4)nnn3c3ccc(Cl)cc23)c(OC)c1` here?
The value was inactive: 34.5%.

For `COc1cc(/C=N/n2c(-c3ccccc3)n[nH]c2=S)cc(OC)c1OC`, which Potency is on record?
Its Potency is inconclusive: 17.8 µM [inhibitor, partial curve, poor fit].

Which “activity change, negative = inhibition” value does the source give for `COc1cccc(-c2ccc(NC(=O)C3CCCN(Cc4cnn(C)c4)C3)cc2)c1` (configuration not stated) here?
Its value is inactive: 23.5%.

Which Potency does the source give for `OCC1CCCCN1C(=S)Nc1cccc(Cl)c1` (configuration not stated) here?
Its Potency is inconclusive: 79.4 µM [inhibitor, single point].

For `CN(C)c1ccc(N=Nc2nc3ccccc3n2C)cc1`, which Potency is on record?
Its Potency is active: 14.1 µM.

For `CCCCC(CC)C(=O)Nc1ccc(S(=O)(=O)Nc2nccs2)cc1` (configuration not stated), which “activity change, negative = inhibition” value is on record?
The value was inactive: 1.38%.

`Cc1ccc2c(c1)c1c(c(=O)n(-c3cccc(Cl)c3)c(=O)n1CC(=O)c1ccc(Cl)cc1)n2C` was tested. Which “activity change, negative = inhibition” value did it give?
The value was inactive: 61.3%.

How did the “activity change, negative = inhibition” value turn out when `CC(C)(C)c1nc2c(s1)CCc1onc(-c3ccc(Cl)cc3)c1-2` was run?
The value was inactive: 32.3%.

With `CCOc1ccc(S(=O)(=O)N2CCN(C(=S)NCc3ccco3)CC2)cc1` as the compound, how does the Potency read?
Its Potency is inconclusive: 50.1 µM [inhibitor, partial curve].

Which “activity change, negative = inhibition” value does the source give for `COc1ccc(-c2cn3cccnc3n2)cc1NC(=O)COc1ccccc1` here?
The value was inactive: 22.5% [at 57 µM].

With `O=CNc1c(Cl)cc2c(c1Cl)Cc1cc([N+](=O)[O-])ccc1-2` as the compound, how does the “activity change, negative = inhibition” value read?
The value was inactive: 37.3%.

Which Potency does the source give for `COC(=O)N/N=C/c1cc(C)n(-c2cccc3ccccc23)c1C` here?
Its Potency is inconclusive: 63.1 µM [inhibitor, single point].

`COc1ccc(N2CCN(CC(O)COc3ccc(C)cc3C)CC2)cc1` (configuration not stated) was tested. Which Potency did it give?
The Potency was inconclusive: 15.8 µM [inhibitor, full curve] and inconclusive: 50.1 µM [inhibitor, partial curve].

`C/C(CC(=O)Nc1ccc2c(c1)OCCO2)=N\NC(=O)COc1ccc(C)cc1Br` was tested. Which “activity change, negative = inhibition” value did it give?
Its value is inactive: 2.45%.

`CSc1ccccc1NC(=O)CN(C)CC(=O)Nc1ccc(Cl)cc1[N+](=O)[O-]` was tested. Which Potency did it give?
The Potency was inconclusive: 50.1 µM [inhibitor, partial curve, poor fit].

With `Cc1ccc(S(=O)(=O)c2nc(S(C)(=O)=O)sc2N2CCC3(CC2)OCCO3)cc1` as the compound, how does the “activity change, negative = inhibition” value read?
Its value is inactive: 34.6%.

Which Potency does the source give for `O=c1c2ccccc2sc2c(CO)ccc(NCCN3CCCCC3)c12` here?
The Potency was inconclusive: 70.8 µM [inhibitor, partial curve].

With `C=CCc1cc(Cl)ccc1OCCCNC(C)C` as the compound, how does the Potency read?
Its Potency is inconclusive: 79.4 µM [inhibitor, single point].

`COC(=O)c1ccccc1S(=O)(=O)C(C)(C)C` was tested. Which Potency did it give?
The Potency was inconclusive: 5.62 µM [inhibitor, full curve].

`COCc1c(C(=O)OCc2nnc(-c3ccc([N+](=O)[O-])cc3)o2)oc2ccccc12` was tested. Which Potency did it give?
The Potency was inconclusive: 14.1 µM [inhibitor, full curve].

With `O=C(c1ccc2c(=O)n(Cc3ccccc3)c(=S)[nH]c2c1)N1CCOCC1` as the compound, how does the “activity change, negative = inhibition” value read?
Its value is inactive: 34.6%.

With `CC(C(=O)N1CCCCC1)N1CCN(S(=O)(=O)c2ccc(Cl)cc2)CC1` (configuration not stated) as the compound, how does the Potency read?
The Potency was inconclusive: 44.7 µM [inhibitor, partial curve, poor fit].

With `CCN1CCN(CCOc2ccccc2OCc2ccccc2)CC1` as the compound, how does the Potency read?
Its Potency is inconclusive: 25.1 µM [inhibitor, single point].

How did the Potency turn out when `CC(=O)N(C)Cc1ccc(C(=O)CCl)cc1` was run?
The Potency was inconclusive: 89.1 µM [inhibitor, single point].

How did the Potency turn out when `CCC(=O)N1CCc2cc(Br)cc(S(=O)(=O)CCC(=O)N(C)c3cccc(C)c3)c21` was run?
Its Potency is inconclusive: 22.4 µM [inhibitor, full curve].

How did the Potency turn out when `O=C(Nc1cc(S(=O)(=O)N2CCOCC2)ccc1O)c1ccc2c(c1)S(=O)(=O)c1ccccc1C2=O` was run?
Its Potency is inconclusive: 5.62 µM [inhibitor, full curve].

For `CCOC(=O)c1c(-c2cccc([N+](=O)[O-])c2)csc1NC(=O)CCCOc1ccccc1OC`, which Potency is on record?
Its Potency is inconclusive: 22.4 µM [inhibitor, partial curve].
